# Values joined by “and” are separate entries in the source; they are usually repeats but may differ in a detail not shown here. Identical values can stand only once. Hit rate of the full screen: of about 360,000 compounds, about 17,000 (4.7%) were called active. This list was built around the results that the source calls inconclusive (neither active nor inactive); the mix of calls is not that of the screen. Rule as the data show it: active = activity change below about -50%; inconclusive = mostly about -30% to -49%; inactive = weaker than that.
# Assay: qHTS for Inhibitors of Inflammasome Signaling: IL-1-beta AlphaLISA Primary Screen
# Details: THP-1 LPS/ATP IL-1B secretion, 16 h, at 57.5 µM, stronger effect = lower value
# Summary of the method: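 Secreted IL-1B measured by AlphaLISA bead assay after 16 h compound exposure of THP-1 cells; compounds (final up to 57.5 uM) added 1 h before LPS (250 ng/mL) and ATP (1.25 mM) stimulation; lower signal means less secretion.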
# % is scaled to controls: 0 for no effect and ±100 for the full control effect.
row,SMILES,activity change
1,CCOP(=O)(OCC)C(NC(=O)c1ccccc1)=C(Cl)Cl,inactive: -25.4%
2,CN1CC=C(/C=C/c2ccc(-c3ccccc3)cc2)CC1,inconclusive: -35.9%
3,COc1cc(OC)c(OC)cc1CN1CCN(C(=O)COc2ccc3ccccc3c2)CC1,inconclusive: -48.3%
4,COC(=O)Cn1cc(C=C2C(=O)N(C)C(=O)N(C)C2=O)c2ccccc21,inactive: 13.7%
5,COC12CCC3(CC1C(C)(O)C(C)(C)C)[C@H]1Cc4ccc(O)c5c4[C@@]3(CCN1CC1CC1)C2O5 (some centres undefined),inconclusive: -38%
6,C[C@]12CC[C@@H]3c4ccc(O)c(O)c4CC[C@H]3[C@@H]1CC[C@@H]2O,inconclusive: -40.2%
7,Clc1ccc(C(Cn2ccnc2)OCc2csc3c(Cl)cccc23)c(Cl)c1 (centres undefined),active: -77.8%
8,O=[N+]([O-])c1ccccc1CNCCc1c[nH]c2ccccc12,inconclusive: -43.3%
9,CN1C(=O)/C(=C/c2cccn2-c2ccc3ccccc3c2)C(=O)NC1=S,active: -117%
10,O=c1[nH]c2ccccc2n1C1CCN(C(c2cc3ccccc3o2)c2nnnn2-c2ccc3c(c2)OCCO3)CC1 (centres undefined),inconclusive: -47.4%
11,COc1ccc(OC)c(-n2c(O)c(/C=C3\C=Nc4ccccc43)c(=O)[nH]c2=O)c1,inactive: -12.8%
12,CC(=O)OC1CC2(O)C3CCC4CC(O)CCC4(C)C3CCC2(C)C1C1=CC(=O)OC1 (centres undefined),active: -79.5%
13,OC(CNCCc1c[nH]c2ccccc12)c1ccccc1 (centres undefined),active: -56.6%
14,CC(=O)OC1C2CCC1C(N1CCCCC1)CC2 (centres undefined),inactive: 0.968%
15,O=c1c2ccccc2nc(/C=C/c2ccc(O)cc2)n1-c1ccccc1O,inconclusive: -45.6%
16,Cc1nc2cc(C(F)(F)F)ccc2n1C1CCN(Cc2nnnn2CCc2ccccc2)CC1,inconclusive: -45.1%
17,O=C1NC(=O)N(Cc2ccco2)C(=O)/C1=C\c1cccn1CCOc1ccc(Cl)cc1,active: -65%
18,CCCCCCOc1ccc(CN2CCN(CC)CC2)cc1,inconclusive: -30.8%
19,COc1cc(/C=C/C(=O)c2c(O)n(CCc3ccccc3)c(=O)[nH]c2=O)ccc1O,active: -99.3%
20,Cc1cccc(OCCn2cccc2/C=C2/C(=O)NC(=O)N(Cc3ccco3)C2=O)c1,inconclusive: -32.5%
21,COc1ccc(OC)c(-n2c(O)c(/C=C3\C(C)=Nc4ccccc43)c(=O)[nH]c2=O)c1,inconclusive: -42.9%

row,SMILES,activity change
1,CCC(C)N1C(=O)/C(=C\c2cnc(N(C)C)nc2)C(=O)NC1=S (centres undefined),active: -52.4%
2,COC(=O)C1=C(c2ccc(S(C)(=O)=O)cc2)C[C@@H]2CC[C@H]1N2C(=O)N1CCOCC1,inactive: -7.89%
3,Cn1cccc1/C=C1/C(=O)NC(=S)N(Cc2ccc(F)cc2)C1=O,inconclusive: -34.6%
4,Cc1ccc2c(c1)C1CN(C)CCC1N2C(=O)Nc1cccc(Cl)c1 (centres undefined),active: -52.6%
5,CCN(CC)c1ccc(N=Cc2c(O)n(CCc3ccc(OC)c(OC)c3)c(=O)[nH]c2=O)cc1,inconclusive: -41.4%
6,CCN(CC)C1=NC(=[N+](CC)CC)c2ccccc21,inconclusive: -46.9%
7,COc1ccc(CN2CCN(C(=O)COc3ccc4ccccc4c3)CC2)c(OC)c1,inconclusive: -33.4%
8,CC(=O)OC(C)(C)/C=C/C(=O)[C@](C)(O)C1[C@H](O)C[C@@]2(C)C3CC=C4C(C[C@H](O)C(=O)C4(C)C)[C@]3(C)C(=O)C[C@]12C (some centres undefined),active: -106%
9,O=[N+]([O-])c1cccc2c([N+](=O)[O-])cccc12,inactive: -14.4%
10,Cc1nc2cc(F)ccc2n1C1CCN(Cc2nnnn2CCc2ccccc2)CC1,inconclusive: -37.1%
11,CC(C)[C@H]1C(=O)O[C@@H]2CCN3CC=C(COC(=O)[C@](C)(O)[C@]1(C)O)[C@H]23,inactive: 9.38%
12,CCC1=CCN(CCc2c(C)[nH]c3ccccc23)CC1,inactive: -8.34%
13,COc1ccc(CC2C(=O)NC(C)C(=O)N(C)C3C(=O)N(C)C(Cc4ccc(O)c(c4)Oc4ccc(cc4)C3O)C(=O)NC(C)C(=O)NC(C)C(=O)N2C)cc1 (centres undefined),active: -101%
14,Fc1cccc(CNCCc2c[nH]c3ccccc23)c1,inconclusive: -37.4%
15,CN(C)c1ccc(NC(=O)CN2C(=O)CN=C(c3ccccc3)c3ccccc32)cc1,inconclusive: -48.4%
16,CC1(C)CC2(CCO1)NCCN1C(=O)CSC12 (centres undefined),inactive: 0.721%
17,CC(=NCc1ccco1)c1c(O)n(-c2ccc(C)cc2)c(=O)[nH]c1=O,inconclusive: -36%
18,C=CCN1CC[C@]23c4c5ccc(O)c4O[C@H]2C(=O)CC[C@@]3(O)[C@H]1C5,inactive: -7.83% and inactive: -15.1%
19,COc1ccc(NP(=O)(Oc2ccc(Cl)cc2)Oc2ccc(Cl)cc2)cc1OC,inconclusive: -32.6%
20,Cc1ccsc1/C=C1\C(=O)NC(=S)N(C)C1=O,active: -94%
21,CCOC(=O)c1c(C)n(Cc2ccc3c(c2)OCO3)c2ccc(O)cc12,inactive: 44.7%

row,SMILES,activity change
1,CCc1ccc(CNCCc2c[nH]c3ccccc23)cc1,active: -52.4%
2,COc1cc2c(cc1OC)-c1c3c(cc4c1[C@@H](C2)N(C)CC4)OCO3,active: -80.7%
3,Oc1ccccc1C1NCc2ccccc2-n2cccc21 (centres undefined),inconclusive: -30.1%
4,O=C1/C(=C/c2cccc([N+](=O)[O-])c2)N2CCC1CC2,active: -67.7%
5,Cc1cc(OCC(=O)N2CCC(C(=O)O)CC2)c2c3c(c(=O)oc2c1)CCC3,inactive: 13.4%
6,CCC(=O)N1CC(=O)Nc2ccc(Br)cc2C1c1ccccc1 (centres undefined),inactive: 11.9%
7,CC(=O)OC1C(=O)OCC23CCC4(C)OC4C2OC2CC(OC(=O)C=CC=CC(=O)OCCC1C)C3(C)C21CO1 (centres undefined),active: -101%
8,O=C(c1ccc(F)c([N+](=O)[O-])c1)N1CC2CC(C1)c1cccc(=O)n1C2 (centres undefined),active: -51.7%
9,O=c1[nH]c2ccccc2n1C1CCN(C(CCc2ccccc2)c2nnnn2C2CCCC2)CC1 (centres undefined),active: -55.2%
10,COc1ccc(C(c2nnnn2-c2ccc(OC)cc2)N2CCC3(CC2)C(=O)NCN3c2ccccc2)cc1 (centres undefined),inconclusive: -48.9%
11,COc1cccc(OP(=O)(Nc2ccccc2)Oc2cccc(OC)c2)c1,inconclusive: -46.2%
12,CCCCn1c(O)c(C(C)=NCc2cc(OC)cc(OC)c2)c(=O)[nH]c1=O,inactive: 0%
13,OC12Oc3ccccc3C=C1N1CCC2CC1 (centres undefined),inactive: 23.8%
14,C[C@]12CCC3C(CC[C@H]4C[C@H](OC(=O)c5cccnc5)CC[C@]34C)C1CCC2=O (some centres undefined),inactive: 20.6%
15,Cc1ccc(N2C(=O)NC(=O)/C(=C\C=C\c3ccco3)C2=O)cc1,active: -97.1%
16,Cc1ccc(C(=O)NC2CC3CCC(C2)N3)cc1 (centres undefined),inconclusive: -37.1%
17,Cn1c(N2CCNCC2)nc2ccccc21,inactive: 1.21%
18,S=C=Nc1cccc(C2(N3CCCCC3)CCCCC2)c1,active: -53.8%
19,CCN(CC(=O)Nc1ccc(NC(C)=O)cc1)C(=O)CSC(c1ccccc1)c1ccccc1,inconclusive: -37.1%
20,CCOC(=O)N1CCC(NC(=O)CCc2nc(C3=CCN(C)CC3)no2)CC1,active: -62.6% and inconclusive: -44.1%
21,Cc1nn(CC(C)C)c(Cl)c1C(=O)NC1CCC(C)CC1 (centres undefined),inactive: 33.1%

row,SMILES,activity change
1,Cc1ccc2c(c1)CCCN2N=O,inactive: -2.46%
2,Nc1cc(Cl)c2nonc2c1[N+](=O)[O-],active: -102%
3,Cc1ccccc1C(=O)N1Cc2ccccc2-n2nncc2C1,inactive: 28.9%
4,COc1ccc(NC(c2ccccc2F)P(=O)(Oc2ccccc2)Oc2ccccc2)cc1 (centres undefined),inactive: -22.8%
5,NC(=Nc1ccccc1)NN=Cc1c[nH]c2ccccc12,active: -109%
6,CS(=O)(=O)NNP(=O)(NNS(C)(=O)=O)NC(=O)c1ccc(Br)cc1,inactive: -5.38%
7,COP(=O)(NC(C)=O)SC (centres undefined),inactive: -2.22%
8,O=C(Cn1ncc2c3ccccc3n(Cc3ccccc3F)c2c1=O)N1CCC2(CC1)OCCO2,inconclusive: -32.6%
9,CCOC(=O)[C@]12Cc3ccccc3[C@H]1N(CCC(=O)OC)C(=O)c1cc(OC)ccc12,active: -118%
10,COc1ccc(OC(=O)N(C)C[C@@H]2OCc3cnnn3CCCC(=O)N([C@@H](C)CO)C[C@H]2C)cc1,inactive: -0.443%
11,O=C(CN1CCN(C(=O)COc2cccc(F)c2)CC1)Nc1ccc(Cl)c(C(F)(F)F)c1,inconclusive: -33.8%
12,Cc1cccc(N2C(=O)NC(=O)/C(=C\C=C\c3ccco3)C2=O)c1,active: -95.6%
13,CC(C)CCNC(=O)c1c(N)n(Cc2ccc3c(c2)OCO3)c2nc3ccccc3nc12,inconclusive: -43.7%
14,CCC1(CC)COP(=O)(OCC(Cl)CCl)OC1 (centres undefined),inactive: 10.5%
15,O=C(CNC(=O)OCc1ccccc1)Nc1ccc(Br)cc1C(=O)c1ccccc1,inconclusive: -30.1%
16,C[C@H]1CC[C@@]2(C)[C@@H](CC[C@@H]3[C@@H]2CC[C@]2(C)[C@@H](O)CC[C@@H]32)C1,inconclusive: -47.8%
17,O=C(c1ccc2c(c1)N(Cc1ccc(F)cc1)CCS2)N1CCC2(CC1)OCCO2,active: -65%
18,COC(=O)C1=Nc2ccccc2/C1=C\c1c(O)n(-c2ccc(Br)cc2)c(=O)[nH]c1=O,inconclusive: -49%
19,COc1cc(/C=N/NC(=O)CN2CC(c3ccccc3)CC2=O)ccc1OC(=O)N(C)C (centres undefined),inconclusive: -31.2%
20,O=c1[nH]c(=O)n(C2CCCCCC2)c(O)c1C=NC1CCN(Cc2ccccc2)CC1,inconclusive: -35.3%
21,Cc1nc2cc(OC(=O)N(C)Cc3cccc(-c4ccncc4)c3)ccc2s1,inconclusive: -34.8%

# Source: PubChem BioAssay AID743279 (National Center for Advancing Translational Sciences (NCATS), 2014)
